According to the RNAGym collection of RNA variant scans (doi:10.1093/nar/gkz1192):
The source gives no read counts; variants with many changes may rest on few reads.

B1: CPEB3 Ribozyme (parent)
chain: UAACAGGGGGCCACAGCAGAAGCGUUCACGUCGCAGCCCCUGUCAGAUUCUGGUGAAUCUGCGAAUUCUGCUGUAUAUCUC

Variants of: B1
Test: self-cleavage, relative activity (ratio to wild type); higher = more cleavage; in vitro, sequencing
Procedure, shortened: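 For each CPEB3 ribozyme variant, relative activity is its cleaved/total read fraction divided by the unmutated ribozyme's. Barcoded error-prone PCR libraries were transcribed by T7 RNA polymerase (5 hours, 37°C) and held in DNase I for 15 min before an EDTA stop, with cleavage occurring throughout. Template-switching reverse transcription and Illumina sequencing were used to read the RNAs. A 5-read minimum applied, and results are the mean of three batches.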
In the case of UAACAUGGGGCCACAGCAGAAGCGUUCGCGUCGCAGCCCCCGUCAAAUUCUGGUGAACCUGCGGAUUCUGCUGUAUAUCUC [G6U A28G U41C G46A U58C A64G], the self-cleavage is reported as 0.07. For UAACAUGGGGCCACAGCAGAAGCGUUCACGUCGCGGCCCCUGUCAGAUUCUGGUGAAUCGGCGAAUUCUGCUGUAUGUCUC [G6U A35G U60G A77G], the self-cleavage was 0.11. UAACAUGGGGCCACAGCAGAAGCGUUCACGUCGCAGCCCCUGUCUGAUUCUGGUGAAUCUGCGAACUCUGCUGUAUAUAUC [G6U A45U U66C C79A] gave a self-cleavage of 0.26. In the case of UAACAUGGGGCCACAGCAGAAGCGUUCACGUCGCUGCCCCUGUCAGGUUCUGGUGAAUCUGCGAAUUCUGCUGUAUAUCUC [G6U A35U A47G], the self-cleavage is reported as 0.1. With UAACAUGGGGCCACAGCAGAAGCGUUCACGUCGCAGCCCCUGUCAGAUUCUGGUGAAUCUGCGUAUUCUGCUGUAUAACAC [G6U A64U U78A U80A] the self-cleavage was 0.09. Work on UAACAUGGGGCCACAGCAGUAGCGUUCGCGUCGCAGCCCCUGUCAGAUUCUGGCGAAUCUGCGAAUUCUGCUGUAUAUCUC [G6U A20U A28G U54C] yielded a self-cleavage of 0.29. For UAACAUGGGGGCACAGCAGAAGCGUACACGUCGCAGCCCCUGUCAGAUUCUGGUGAAUCUGCGAAUUCUGCUGUAUAUCUC [G6U C11G U26A], the self-cleavage was 0.96. With UAACAUGGGGCCACAGCAGAAGCGUUCACGUCGCUGCCCCUGUCAGAUUCUGGUGAAUCUGCGGAUUCUGCUGUAUAUCUC [G6U A35U A64G] the self-cleavage was 0.16. In the case of UAACAUGGGGACACAGCUGAAGCGGUCACGUCGCAGCCCCUGUCAGAUUCUGGUGAAUCUGCGAAUUCUGCUGUAUAUCUC [G6U C11A A18U U25G], the self-cleavage is reported as 0.05. UAACAUGGGGCCACAGCAGAAGCGUUCCCGUCGCAGCCCCUGUCAGAUUCCGGUGGAUCUGCGAAUUCUGCUGUAUACCUC [G6U A28C U51C A56G U78C] showed a self-cleavage of 0.07. With UAACAUGGGGCCACAGCAGCAGAGUUCACGUCGCAGCCCCUGUCAGAUUCUGGUGAAUCUGCGUAUUCUGCUGUAUAUCCC [G6U A20C C23A A64U U80C] the self-cleavage was 0.06. With UAACAUGGGGCCACAGCAGGAGCGUUCACGUCGCAGCCCCUGUCAGAUUCCGGUGAAUCUGCGAAUUCUGCUGUAUAUCUC [G6U A20G U51C] the self-cleavage was 0.1. In the case of UAACAUGGGGCCACAGCAGAAGCGUUCACGUCGCAGCCCCUGUCAGAUUCUGGUGAAUCUGCGAGUUCAGCUGUAUAUCUC [G6U A65G U69A], the self-cleavage is reported as 0.39. In the case of UAACAUGGGGCCACAGCAGAGGUGUCCACGUCGCAGCCCCUGUCAGAUUCUGGUGAAUCUGCGAAUUCUGCUGUAUAUCUC [G6U A21G C23U U26C], the self-cleavage is reported as 0.07. UAACAUGGGGCCACAGCAGAAGCGUUCGCGUCGCAGCCCCUGUCAGAUUCUGGUGAAUCUGCGAAUUCUGCUGUAUAUAUC [G6U A28G C79A] gave a self-cleavage of 0.09. UAACAUGGGGCCACAGCAGAAGCGUUCACGUCGCGGCCCCUGUCAGAUUCUGGUGAAUCUGCGAAUUCUGCUGUAUAUCCC [G6U A35G U80C] gave a self-cleavage of 0.53. UAACAUGGGGCCACAGCAGAAGCGUUCACGUCGCGGCCCCUGUCAGAUUCUGGUGAAUCUGCGAAUUCUGCCGUAUAUCUC [G6U A35G U72C] showed a self-cleavage of 0.39. In the case of UAACAUGGGGCCACAGCAGAUGCGUUCACGUCGCAGCCCCUGUCAGAUUCUGGUGAAUCCGCGAAUUCUGCUGUAUAUCUC [G6U A21U U60C], the self-cleavage is reported as 0.07. For UAACAUGGGGCCACAGCAGAUGCGUUCACGUCGCAGCCCCUGUCAGUCUCUGGUGAAUCUGCGAAUUCUGCUGUAAGUCUC [G6U A21U A47U U48C U76A A77G], the self-cleavage was 0.23. In the case of UAACAUGGGGCCACAGCAGGAGCGUUCACGUCGCAGCCCCUGUCAGAUUCUGGUGAACCUGCGAAUUCUGCUGUAUAUCUC [G6U A20G U58C], the self-cleavage is reported as 0.32. UAACAUGGGGACACAGCAGAAGCGUUCCCGUAGCAGCCCCUGUCAGUUUCUGGUGAAUCUGCGAAUUCGGCUGUAUAUCUC [G6U C11A A28C C32A A47U U69G] gave a self-cleavage of 0.06. Variant UAACAUGGGGGCACAGCAGAAGCGUUCACGUCGCAGCCCUUGCCAGAUGCUGGUGAAUCUGCGGAUUCUGCUGUAUAUCUC [G6U C11G C40U U43C U49G A64G] has a self-cleavage of 0.28. Variant UAACAUGGGGCCACAGCAGAAGCGUUCACGUCGCAGCCCCUGUCAGGUCCUGGUGUGUCUGCGAAUUCUGCUGUAUAUCUC [G6U A47G U49C A56U A57G] has a self-cleavage of 0.05. With UAACAUGGGGCCACAGCAGAAGCGUUCACGUCGCAGCCCCUGUCAGGUCCUGGUGAAUCUGCGUAUUCUGCUGUAUAUCUC [G6U A47G U49C A64U] the self-cleavage was 0.12. With UAACAUGGGGCCACAGCAGAUGCGUUCACGUCGCUGCCCCUGUCAGAUUCUGGUGAAUCUGCGAAUUCUGCUGUAUAUCUC [G6U A21U A35U] the self-cleavage was 0.33. With UAACAUGGGGCCACAGCAGAAGCGUUCACGUCGCAGCCCCUGUCGGAUUCUGGUGAAUCUGCGAAUUCUGCCGUAUAUCUC [G6U A45G U72C] the self-cleavage was 0.1. Variant UAACAUGGGGCCACAGCAGAAGCGUUCACGUCGCGGCCCCUGUCAGAUUCUGGUGAGUCUGCGAAUUCUGCUGUAUAUCUC [G6U A35G A57G] has a self-cleavage of 0.3. In the case of UAACAUGGGGCCACAGCAGAAGCGUUCGCGACGCAGCCCCUGUCGGAUUCUGGUGCAUCUGCGAAUUCCGCUAUAUAUCUC [G6U A28G U31A A45G A56C U69C G73A], the self-cleavage is reported as 0.04. UAACAUGGGGCCACAGCAGUAGCGUUCACGUCGCAGCCCCUGUCAGAUUCUGGUGAAUCUGCGAAUCCUGCUGUAUAUCUC [G6U A20U U67C] gave a self-cleavage of 0.12. For UAACAUGGGGCCACAGCAGAAGCGUUCUCGUCGCGGCCCCUGCCAGAUUCUGGUGAAUCUGCGAAUUCUGCUGUAUAUCUC [G6U A28U A35G U43C], the self-cleavage was 0.13. In the case of UAACAUGGGGCCACAGCAGAAGCGUUCGCGUCGCACCCCCUGUCAGAUUCUGGUGAAUCUGCGAAUCCUGCUGUAUACCUC [G6U A28G G36C U67C U78C], the self-cleavage is reported as 0.04. For UAACAUGGGGCCACAGCAGAGGCGCUCACGUGGCAGCCCCCGUCAGAUUCUGGCGAAUCUGCGAAUUCUGCUGUACAUCUC [G6U A21G U25C C32G U41C U54C U76C], the self-cleavage was 0.22. Work on UAACAUGGGGCCACAGCUGAAGCGUUCACGUCGCAGCCCCUGUCAGAUUCUGGCGAAUCAGCGAAUUCUGCUGUAUAUCUC [G6U A18U U54C U60A] yielded a self-cleavage of 0.2. UAACAUGGGGCCACAGCAGAAGCGUUCUCUUCGCGGCCCCCGUCAGAUUCUGGUGAAUCUGCGAAUUCUCCUGAAUAUCUC [G6U A28U G30U A35G U41C G70C U74A] gave a self-cleavage of 0.04.
